From publication PMC9724675
Results are given in words; binding and its absence hold for the method and conditions named. Binding seen in cells or lysates may run through a third protein. Some binding calls cover weakened binding; strength is not graded here. Where a sequence is shown, tags or fusion partners need not be part of it. Blank lines part the entries; values can stand above or below the binder they belong to.

Protein sequences, listed by entry. Tags and fused reporters are not part of them.
UniProt Q9ES83: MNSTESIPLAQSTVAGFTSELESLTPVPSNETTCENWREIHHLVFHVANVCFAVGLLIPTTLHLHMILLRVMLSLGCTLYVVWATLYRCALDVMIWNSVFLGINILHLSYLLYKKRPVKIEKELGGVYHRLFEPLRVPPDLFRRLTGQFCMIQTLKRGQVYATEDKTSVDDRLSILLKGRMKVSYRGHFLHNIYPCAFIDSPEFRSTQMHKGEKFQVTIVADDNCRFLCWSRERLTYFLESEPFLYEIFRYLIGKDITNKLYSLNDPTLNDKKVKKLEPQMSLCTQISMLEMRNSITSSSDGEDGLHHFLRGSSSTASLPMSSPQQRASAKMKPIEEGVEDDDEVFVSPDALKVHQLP

Experiments:
[1] = target: POPDC1-Myc (Popeye domain-containing protein 1, Myc-tagged) (mouse) (UniProt Q9ES83); assay: co-IP; HEK293 lysates, immunoprecipitation of Myc-tagged POPDC with anti-MYC, western blot (anti-FLAG, anti-GFP)
POPDC2-Myc (mouse) [2] = target: T1, POPDC2-Myc (mouse) (UniProt Q9ES82); assay: proximity ligation; HEK293 cells expressing YFP(GFP)-tagged AC9 and Myc-tagged POPDC proteins, fixed; antibodies against GFP and MYC; competition by overexpressed Flag-AC9, POPDC1-Flag or EGFR (control); high content microscopy
T1 sequence: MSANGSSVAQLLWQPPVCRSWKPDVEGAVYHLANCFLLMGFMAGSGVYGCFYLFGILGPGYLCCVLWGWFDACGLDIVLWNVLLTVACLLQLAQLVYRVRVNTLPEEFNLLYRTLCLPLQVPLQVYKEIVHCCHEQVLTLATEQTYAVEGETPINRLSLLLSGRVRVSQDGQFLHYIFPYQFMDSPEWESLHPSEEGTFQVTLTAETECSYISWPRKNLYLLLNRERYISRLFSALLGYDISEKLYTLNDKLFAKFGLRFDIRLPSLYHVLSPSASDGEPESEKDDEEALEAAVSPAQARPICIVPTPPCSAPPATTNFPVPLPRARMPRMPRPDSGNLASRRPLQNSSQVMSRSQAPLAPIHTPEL

[3] = target: POPDC1-Myc (Popeye domain-containing protein 1, Myc-tagged) (mouse) (UniProt Q9ES83); assay: as above
POPDC2-Myc (mouse) [4] = target: T1, POPDC2-Myc (mouse); assay: co-IP; HEK293 lysates, immunoprecipitation of Myc-tagged POPDC with anti-MYC, western blot (anti-FLAG, anti-GFP)
[5] = target: POPDC1-Myc (Popeye domain-containing protein 1, Myc-tagged) (mouse) (UniProt Q9ES83); assay: co-IP; IP-AC assay: HEK293 lysates, immunoprecipitation with anti-MYC, associated AC activity measured with 300 nM Gαs-GTPγS
[6] = target: POPDC1-Myc (Popeye domain-containing protein 1, Myc-tagged) (mouse) (UniProt Q9ES83); assay: co-IP; COS-7 lysates, immunoprecipitation of Myc-tagged POPDC1 and truncations with anti-MYC, western blot with anti-AC9 and anti-MYC

binding [1]: binds | binding (POPDC2-Myc (mouse) [2]): binds | binding [3]: binds
B1: YFP-tagged AC9 (enzyme, UniProt O60503 1-1353)
chain: MASPPHQQLLHHHSTEVSCDSSGDSNSVRVKINPKQLSSNSHPKHCKYSISSSCSSSGDSGGVPRRVGGGGRLRRQKKLPQLFERASSRWWDPKFDSVNLEEACLERCFPQTQRRFRYALFYIGFACLLWSIYFAVHMRSRLIVMVAPALCFLLVCVGFFLFTFTKLYARHYAWTSLALTLLVFALTLAAQFQVLTPVSGRGDSSNLTATARPTDTCLSQVGSFSMCIEVLFLLYTVMHLPLYLSLCLGVAYSVLFETFGYHFRDEACFPSPGAGALHWELLSRGLLHGCIHAIGVHLFVMSQVRSRSTFLKVGQSIMHGKDLEVEKALKERMIHSVMPRIIADDLMKQGDEESENSVKRHATSSPKNRKKKSSIQKAPIAFRPFKMQQIEEVSILFADIVGFTKMSANKSAHALVGLLNDLFGRFDRLCEETKCEKISTLGDCYYCVAGCPEPRADHAYCCIEMGLGMIKAIEQFCQEKKEMVNMRVGVHTGTVLCGILGMRRFKFDVWSNDVNLANLMEQLGVAGKVHISEATAKYLDDRYEMEDGKVIERLGQSVVADQLKGLKTYLISGQRAKESRCSCAEALLSGFEVIDGSQVSSGPRGQGTASSGNVSDLAQTVKTFDNLKTCPSCGITFAPKSEAGAEGGAPQNGCQDEHKNSTKASGGPNPKTQNGLLSPPQEEKLTNSQTSLCEILQEKGRWAGVSLDQSALLPLRFKNIREKTDAHFVDVIKEDSLMKDYFFKPPINQFSLNFLDQELERSYRTSYQEEVIKNSPVKTFASPTFSSLLDVFLSTTVFLTLSTTCFLKYEAATVPPPPAALAVFSAALLLEVLSLAVSIRMVFFLEDVMACTKRLLEWIAGWLPRHCIGAILVSLPALAVYSHVTSEYETNIHFPVFTGSAALIAVVHYCNFCQLSSWMRSSLATVVGAGPLLLLYVSLCPDSSVLTSPLDAVQNFSSERNPCNSSVPRDLRRPASLIGQEVVLVFFLLLLLVWFLNREFEVSYRLHYHGDVEADLHRTKIQSMRDQADWLLRNIIPYHVAEQLKVSQTYSKNHDSGGVIFASIVNFSEFYEENYEGGKECYRVLNELIGDFDELLSKPDYSSIEKIKTIGATYMAASGLNTAQAQDGSHPQEHLQILFEFAKEMMRVVDDFNNNMLWFNFKLRVGFNHGPLTAGVIGTTKLLYDIWGDTVNIASRMDTTGVECRIQVSEESYRVLSKMGYDFDYRGTVNVKGKGQMKTYLYPKCTDHRVIPQHQLSISPDIRVQVDGSIGRSPTDEIANLVPSVQYVDKTSLGSDSSTQAKDAHLSPKRPWKEPVKAEERGRFGKAIEKDDCDETGIEEANELTKLNVSKSV

binding (POPDC2-Myc (mouse) [4]): binds | binding [1]: binds | binding [5]: binds | binding [6]: binds
B2: Flag-tagged AC9 (adenylyl cyclase 9) (enzyme, UniProt O60503 1-1353)
chain: B1 chain
